# In article PMC4336329 (PLoS ONE, 2015):
# Screen size: about 310,000 compounds; about 2,200 (0.71%) showed an effect of 50% or more. Effects have a minus sign here. Some of the results follow.
# Biological target: human ether-à-go-go-related gene (hERG) potassium channel (human, UniProt Q12809)
# Assay: primary screen, population patch clamp on CHO cells stably expressing hERG
# Sequence of human ether-à-go-go-related gene (hERG) potassium channel (Q12809 whole entry, looked up): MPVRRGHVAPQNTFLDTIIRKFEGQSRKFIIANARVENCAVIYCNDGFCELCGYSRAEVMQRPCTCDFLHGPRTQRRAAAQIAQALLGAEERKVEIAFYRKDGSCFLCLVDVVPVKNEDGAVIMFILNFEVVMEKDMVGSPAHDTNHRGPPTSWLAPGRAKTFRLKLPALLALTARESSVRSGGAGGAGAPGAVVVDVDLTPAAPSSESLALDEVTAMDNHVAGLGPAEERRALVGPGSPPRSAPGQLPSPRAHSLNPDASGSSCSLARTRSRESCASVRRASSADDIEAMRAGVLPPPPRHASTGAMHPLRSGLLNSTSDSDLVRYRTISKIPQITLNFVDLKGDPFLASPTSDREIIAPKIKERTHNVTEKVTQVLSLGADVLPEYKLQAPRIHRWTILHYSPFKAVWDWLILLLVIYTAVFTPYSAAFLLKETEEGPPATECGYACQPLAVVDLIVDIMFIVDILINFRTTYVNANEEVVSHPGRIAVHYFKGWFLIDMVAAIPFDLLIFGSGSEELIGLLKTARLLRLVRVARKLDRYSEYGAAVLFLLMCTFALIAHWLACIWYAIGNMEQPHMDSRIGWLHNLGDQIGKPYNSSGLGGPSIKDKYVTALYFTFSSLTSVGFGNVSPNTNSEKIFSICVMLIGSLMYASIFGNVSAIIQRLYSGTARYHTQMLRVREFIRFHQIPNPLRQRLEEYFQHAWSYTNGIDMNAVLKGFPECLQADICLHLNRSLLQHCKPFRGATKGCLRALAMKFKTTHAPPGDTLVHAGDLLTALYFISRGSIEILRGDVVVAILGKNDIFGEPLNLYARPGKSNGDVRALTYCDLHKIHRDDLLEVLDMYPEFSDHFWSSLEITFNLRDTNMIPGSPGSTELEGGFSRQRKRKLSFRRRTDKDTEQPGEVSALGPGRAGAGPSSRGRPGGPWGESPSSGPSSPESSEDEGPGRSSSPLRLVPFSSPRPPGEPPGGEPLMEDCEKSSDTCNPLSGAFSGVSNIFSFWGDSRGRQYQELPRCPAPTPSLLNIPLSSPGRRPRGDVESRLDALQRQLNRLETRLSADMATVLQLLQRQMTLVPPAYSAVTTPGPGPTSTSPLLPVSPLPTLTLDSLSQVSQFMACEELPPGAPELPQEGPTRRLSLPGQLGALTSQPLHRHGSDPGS
row,Compound,"hERG current change (%, negative = inhibition) at 1uM [%]"
1,CCOc1ccccc1NS(=O)(=O)c1ccc2[nH]c(=O)ccc2c1,3.38
2,COc1ccccc1C(=O)Nc1ccc(S(=O)(=O)N(C)c2ccccc2)cc1,11
3,CCCCCc1ccc(CC(=O)Nn2c(C)nc3ccccc3c2=O)cc1,-5.15
4,CC12CC3CC(C)(C1)CC(C(=O)N1CCN(C(=O)C4CCCO4)CC1)(C3)C2 (stereo not shown),15.8
5,N/C(=N\OC(=O)c1ccc(Cl)cc1)c1nonc1N,16.8
6,CCN1CCN(C(=O)c2ccc3c(c2)N(Cc2ccccc2)C(=O)c2ccccc2S3(=O)=O)CC1,9.06
7,CCOC(=O)c1c(NC(=O)CSc2ncn[nH]2)sc(C(=O)NC)c1C,-2.11
8,CCOc1cc(C(=O)NCC(=O)N/N=C/c2sccc2C)cc(OCC)c1OCC,5.49
9,Cc1cc(NS(=O)(=O)c2ccc(NC(=O)Nc3ccccc3)cc2)no1,-0.609
10,c1ncn(C23CC4CC(CC(C4)C2)C3)n1,16
11,CCN(CC)CCNC(=O)c1ccc2c(=O)n(C3CCCC3)c(=S)[nH]c2c1,-3.59
12,O=C(COC(=O)c1ccc(S(=O)(=O)NCc2ccco2)cc1)NC1CCCCCC1,11.1
13,O=C(c1ccccc1[N+](=O)[O-])N1CCC2(CC1)OCCO2,11.9
14,Cc1cccc(C(=O)O/N=C(/c2ccccc2)c2ccncc2)c1,9.4
15,O=C(CSc1cccc[n+]1[O-])Nc1cc(S(=O)(=O)N2CCOCC2)ccc1N1CCOCC1,14.1
16,CCC(=O)N1CCN(c2ccccc2NC(=O)COc2ccc(C(C)C)cc2)CC1,-0.267
17,CCCOc1ccc(OCCNC2CCCC2)cc1,-2.94
18,C=C1CCN([C@@H](CC(C)C)C(=O)NCc2cc(OC)c(OC)c(OC)c2)S(=O)(=O)c2ccccc21,13.9
19,Cc1ccc(NS(=O)(=O)c2c(C(=O)N3CCOCC3)c(C)n(C)c2C)cc1,14.8
20,COc1ccc(C2=NOC(C(=O)Nc3cc(C)on3)C2)cc1 (stereo not shown),4.59
21,COc1ccc(OC)c(-n2c(SCC(=O)NCc3ccco3)nnc2-c2c[nH]c3ccccc23)c1,5.16
22,O=C1C2Sc3[nH]c(=O)sc3C(c3ccccc3)C2C(=O)N1c1ccccc1 (stereo not shown),-4.02

row,Compound,"hERG current change (%, negative = inhibition) at 1uM [%]"
1,CCc1ccc(-c2nc(NC(=O)c3ccc(OCC(=O)Nc4ccc(F)cc4)c(OC)c3)sc2C)cc1,3.65
2,CN(Cc1ccccc1)C(=O)c1nc2ccccn2c1CN1CCc2sccc2C1,-1.49
3,Cc1cc(C)n(C2CC(=O)N(c3ccc(Cl)c(Cl)c3)C2=O)n1 (stereo not shown),9.03
4,COc1ccc(Cc2noc(CN(C)CC(O)c3ccccc3)n2)cc1OC (stereo not shown),10.3
5,COc1ccc(CCNC(=O)COC(=O)c2ccco2)cc1OC,20.4
6,C=CCn1cc(C(=O)N2CCc3ccccc3C2)c(=O)c2cc(S(=O)(=O)N(CC)CC)ccc21,-5.88
7,COc1cccc(NC(=O)[C@@H]2CCC(=O)N2C2OC(=O)c3ccccc32)c1 (stereo partly shown),9.92
8,COc1cccc(N2CCN(C(=O)c3ccccc3SCC(=O)NCc3ccco3)CC2)c1,11.1
9,CCn1c(SCC(=O)Nc2ccccc2C(=O)OC)nnc1-c1cccc(C)c1,-12.2
10,OC1CCN(Cc2cn(Cc3ccccc3)nc2-c2cc3ccccc3o2)CC1,-18.4
11,CCOC(=O)Cc1csc(NC(=O)COc2ccc3c(c2)CCC3)n1,10.9
12,Cn1c(CC(=O)Nc2ccccc2F)nnc1SCC(=O)N1CCOCC1,5.22
13,N/C(=N\OC(=O)c1ccc2ccccc2c1)c1ccccn1,17.8
14,Cc1ccc(NC(=O)C2CSC3(C)CCC(=O)N23)cc1S(=O)(=O)N1CCOCC1 (stereo not shown),12.2
15,COCc1nc(-c2cc(Br)ccc2OC)no1,-1.29
16,O=C(O)C1CSC(c2coc3ccccc3c2=O)N1 (stereo not shown),12.7
17,Cc1cccc(C(C(=O)NC2CCCCC2)N(Cc2cccnc2)C(=O)c2csnn2)c1 (stereo not shown),2.52
18,Cc1cnc(NC(=O)CSc2ncn(-c3ccccc3)n2)s1,-1.75
19,COc1ccc(C2=NS(=O)(=O)N(C)C(C(=O)NCc3cccs3)=C2)cc1OC,-9.42
20,Cc1ccc(CNC(=O)C2CCCN2S(=O)(=O)c2ccc(F)cc2)cc1 (stereo not shown),13.4
21,CCOC(=O)c1ccc(N2C(=O)CC(C3CCCO3)C2=O)cc1 (stereo not shown),1.92
22,CC1CCC(NC(=O)C2CCC(CNS(=O)(=O)c3ccccc3)CC2)CC1 (stereo not shown),15.5

row,Compound,"hERG current change (%, negative = inhibition) at 1uM [%]"
1,CNc1ccccc1C(C)(C)c1cc(-c2ccco2)n[nH]1,2.35
2,COc1cc(Cl)c(C)cc1NC(=O)CC1CCCC1,8.04
3,CS(=O)(=O)c1ccc(-c2cccc(NC(=O)COc3ccc(Cl)cc3)c2)nn1,10.7
4,Cc1ccc(S(=O)(=O)N2CCC(C(=O)OCC(=O)N(C)C3CCCCC3)CC2)cc1C,17.9
5,O=C(Nc1ccc(F)cc1)C1C(c2ccccc2)C1(Cl)Cl (stereo not shown),9.41
6,CS(=O)(=O)Nc1ccc(C2=NN(C(=O)C3CCCCC3)C(c3cccs3)C2)cc1 (stereo not shown),0.239
7,CCOc1cc(C2C(C(=O)OC(C)C)=C(C)NC3=C2C(=O)CCC3)cc([N+](=O)[O-])c1O (stereo not shown),17.7
8,Cc1ccc2nc(N(CCN(C)C)C(=O)c3ccc4ccccc4c3)sc2c1.Cl,15.2
9,CCOC(=O)CC(NS(=O)(=O)Cc1ccccc1)c1ccc(C)cc1 (stereo not shown),6.98
10,CC(OC(=O)c1ccc(Cl)nc1)C(=O)N1CCc2ccccc21 (stereo not shown),9.88
11,CCOc1ccc(NC(=O)[C@H](C)NC(=O)C2CC(=O)N(c3ccc(OC)cc3)C2)cc1 (stereo partly shown),11.4
12,O=C(NCCc1ccccc1)C1CC(c2ccccc2O)=NO1 (stereo not shown),-4.71
13,CCN1CCN(C(=O)C(N)Cc2ccccc2)CC1 (stereo not shown),15.1
14,O=C(COc1ccc2ccc(=O)oc2c1)Nc1cc([N+](=O)[O-])ccc1F,4.05
15,CN1CCN(c2ccc(NC(=O)C(C)(C)C)cc2)CC1,13.6
16,O=S(=O)(Nc1ccc2nc(-c3ccco3)[nH]c2c1)c1ccccc1,3.11
17,Cc1ccc2nc(COc3ccc(N(C)S(=O)(=O)c4ccccc4)cc3)cc(=O)n2c1,-35.8
18,CCSc1nc(N)c(NC(=O)c2ccc(Br)o2)c(=O)[nH]1,6.68
19,CN(C)CCNC(=O)Cn1c(=O)c2cccn2c2ccc(F)cc21,11.8
20,O=C(CSc1nnc(NC(=O)c2ccc(S(=O)(=O)N3CCOCC3)cc2)s1)Nc1ccccc1C(F)(F)F,19.3
21,COc1ccc(C(=O)N(Cc2ccccc2)Cc2cc3cc4c(cc3[nH]c2=O)OCCO4)cc1,-1.77
22,CC(NC(=O)CCC(=O)c1cccs1)c1ccccc1 (stereo not shown),14.1

row,Compound,"hERG current change (%, negative = inhibition) at 1uM [%]"
1,Cc1cccc(C)c1NC(=O)N1CCC(n2cnc3ccccc32)CC1,12.2
2,COc1ccc(N2CCN(S(=O)(=O)CCNC(=O)c3cccs3)CC2)cc1,12.4
3,Cc1ccc2cc(CN(c3ccccc3C)S(=O)(=O)c3ccccc3)c(=O)[nH]c2c1,10.6
4,O=C(NC(=S)Nc1nc2c(ccc3ccccc32)s1)c1cccs1,12
5,Cc1nn(-c2ccccc2)c2nc(-c3ccco3)cc(C(=O)O)c12,6.92
6,Cn1c(N)c(C(=O)CSc2nnc(C3CC3)n2-c2ccccc2)c(=O)n(C)c1=O,-4.35
7,CC1CN(C(=O)Nc2cccc(Cl)c2)C2(CCCCCC2)O1 (stereo not shown),10.9
8,Fc1ccc(C2NCCc3[nH]cnc32)cc1 (stereo not shown),17.6
9,Cc1ccc2nc(C3CCCN(C(=O)NCc4ccccc4)C3)[nH]c2c1 (stereo not shown),1.19
10,CCOc1ccc(OCC)c(-c2c(=O)n(OCc3ccc(C(C)(C)C)cc3)c3ccccc3[n+]2[O-])c1,21.5
11,C#CCOCCOCCOCCNc1nc(N2CCN(C(=O)[C@H]([C@@H](C)CC)n3cc([C@@H](N)Cc4ccc(O)cc4)nn3)CC2)nc(N2CCN(C(=O)[C@H]([C@@H](C)CC)n3cc([C@@H](N)CC(C)C)nn3)CC2)n1.Cl,-3.16
12,COc1ccc2cc(CCNC(=O)c3cc4ccccc4o3)c(=O)[nH]c2c1,5.36
13,O=C(N/N=C/c1cccnc1)c1cc(-c2ccc(Br)cc2)nc2ccccc12,17.1
14,CCC(=O)NC(C)C(c1cccs1)N1CCOCC1 (stereo not shown),1.95
15,CC(=O)CC(=O)NC(=NC1CCCCC1)Nc1nc(C)cc(C)n1,15.9
16,Cc1nc2ccccc2c2ncccc12,6.96
17,CC(C)=C(NC(=O)c1ccccc1)C(N)=O,1.4
18,O=C(CCn1c(=O)sc2ccccc21)NCc1ccco1,7.61
19,COC(=O)C1=C(C(=O)c2ccc(C)cc2)C(c2ccc(O)c(OC)c2)n2nnnc2N1 (stereo not shown),10.6
